One assay deals with T1, GST-Rtn3c (mouse) (UniProt Q9ES97).
T1 sequence: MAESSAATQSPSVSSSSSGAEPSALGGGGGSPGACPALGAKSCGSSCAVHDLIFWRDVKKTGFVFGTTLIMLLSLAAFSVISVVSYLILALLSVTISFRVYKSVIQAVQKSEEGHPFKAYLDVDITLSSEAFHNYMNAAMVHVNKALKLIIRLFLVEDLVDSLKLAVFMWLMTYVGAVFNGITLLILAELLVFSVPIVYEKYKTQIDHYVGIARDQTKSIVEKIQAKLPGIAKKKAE
As to the kind of experiment: pull-down; GST-Lnp or GST-Rtn3c (1 nmol) immobilised on glutathione Sepharose, incubated with MBP-CAND1 or MBP alone (10 nmol) in buffer G (50 mM Tris-HCl pH 8.0, 150 mM NaCl, 1% Triton X-100) with 10 mM imidazole, 4 °C 2 h; CBB staining; both purified.

Amino acid sequences for entries named in this document (tags omitted). A change or cut given only in a name is not applied to a line headed by its entry. Residues count along the entry.
UniProt Q9C0E8: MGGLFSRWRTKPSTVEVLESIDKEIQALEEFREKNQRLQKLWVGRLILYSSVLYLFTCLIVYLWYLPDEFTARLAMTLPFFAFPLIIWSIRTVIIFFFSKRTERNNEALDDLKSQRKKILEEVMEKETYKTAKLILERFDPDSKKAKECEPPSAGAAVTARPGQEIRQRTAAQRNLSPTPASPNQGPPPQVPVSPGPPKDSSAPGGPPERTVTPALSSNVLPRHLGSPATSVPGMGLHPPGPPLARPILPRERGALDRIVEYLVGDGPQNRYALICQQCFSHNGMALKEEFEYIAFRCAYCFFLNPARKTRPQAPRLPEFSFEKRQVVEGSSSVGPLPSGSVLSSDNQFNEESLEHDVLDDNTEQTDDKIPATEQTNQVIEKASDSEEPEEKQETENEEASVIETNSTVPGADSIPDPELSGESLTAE
GST-Lnp Ub (N-terminal ubiquitin ligase domain of Lnp): residues 1-45 of Q9C0E8
UniProt Q9UKV5: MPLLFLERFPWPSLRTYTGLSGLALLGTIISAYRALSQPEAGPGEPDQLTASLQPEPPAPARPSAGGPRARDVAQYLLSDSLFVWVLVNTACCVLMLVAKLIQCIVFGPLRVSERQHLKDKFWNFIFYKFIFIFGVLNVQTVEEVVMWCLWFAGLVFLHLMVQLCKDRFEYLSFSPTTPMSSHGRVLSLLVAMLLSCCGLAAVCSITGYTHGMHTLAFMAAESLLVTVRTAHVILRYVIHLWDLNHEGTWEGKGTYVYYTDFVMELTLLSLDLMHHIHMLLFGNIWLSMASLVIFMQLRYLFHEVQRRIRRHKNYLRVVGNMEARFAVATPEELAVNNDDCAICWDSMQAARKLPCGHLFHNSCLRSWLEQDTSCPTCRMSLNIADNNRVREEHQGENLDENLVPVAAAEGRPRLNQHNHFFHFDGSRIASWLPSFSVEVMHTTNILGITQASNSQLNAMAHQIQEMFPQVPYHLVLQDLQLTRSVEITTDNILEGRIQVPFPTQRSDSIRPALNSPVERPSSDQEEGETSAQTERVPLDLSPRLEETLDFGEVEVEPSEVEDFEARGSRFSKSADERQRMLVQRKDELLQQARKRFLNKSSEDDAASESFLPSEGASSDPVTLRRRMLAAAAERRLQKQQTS

The target in assay [1] is GST-Lnp Ub (N-terminal ubiquitin ligase domain of Lnp) (human) (UniProt Q9C0E8). Nature of the assay: pull-down; GST-Lnp or GST-Lnp Ub (0.6 nmol) immobilised on glutathione Sepharose, incubated with MBP-CAND1 (6 nmol) in buffer A with 1% Triton X-100, 4 °C 2 h; CBB staining; both purified.
The target in another assay is gp78-myc (human) (UniProt Q9UKV5). As to the kind of experiment: co-IP; HEK293 cells transfected with Lnp-FLAG, HA-CAND1 and gp78-myc together; NP-40 extracts (buffer F) immunoprecipitated with anti-myc mAb or anti-HA mAb, 4 °C 3 h; immunoblot.
In assay [2] the target is HA-tagged CAND1 (human) (UniProt Q86VP6). The description is as above.
For assay [3] the target is unchanged. Nature of the assay: co-IP; HEK293 cells transfected with Lnp-FLAG and HA-CAND1; NP-40 extracts (buffer F) immunoprecipitated with anti-HA mAb, 4 °C 3 h; immunoblot. (In western blotting, separated proteins are transferred to a membrane and probed.)
Assay [4] concerns the target endogenous CAND1 of HeLa cells (human (endogenous in HeLa)) (UniProt Q86VP6). As to the kind of experiment: co-IP; endogenous proteins; NP-40 extract of HeLa cells (buffer F) immunoprecipitated with anti-CAND1 mAb or mouse control IgG, 4 °C overnight; immunoblot.
In another assay the target is T2, MBP-fused CAND1 (human, UniProt Q86VP6 1-1230).
T2 construct: Cullin-associated and neddylation-dissociated 1 (CAND1), human; cDNA bought from the Kazusa DNA Research Institute, in pMAL-C2; also called MBP-CAND1; source: E. coli Rosetta-Gami, purified (amylose resin, eluted with maltose)
T2 sequence (looked up): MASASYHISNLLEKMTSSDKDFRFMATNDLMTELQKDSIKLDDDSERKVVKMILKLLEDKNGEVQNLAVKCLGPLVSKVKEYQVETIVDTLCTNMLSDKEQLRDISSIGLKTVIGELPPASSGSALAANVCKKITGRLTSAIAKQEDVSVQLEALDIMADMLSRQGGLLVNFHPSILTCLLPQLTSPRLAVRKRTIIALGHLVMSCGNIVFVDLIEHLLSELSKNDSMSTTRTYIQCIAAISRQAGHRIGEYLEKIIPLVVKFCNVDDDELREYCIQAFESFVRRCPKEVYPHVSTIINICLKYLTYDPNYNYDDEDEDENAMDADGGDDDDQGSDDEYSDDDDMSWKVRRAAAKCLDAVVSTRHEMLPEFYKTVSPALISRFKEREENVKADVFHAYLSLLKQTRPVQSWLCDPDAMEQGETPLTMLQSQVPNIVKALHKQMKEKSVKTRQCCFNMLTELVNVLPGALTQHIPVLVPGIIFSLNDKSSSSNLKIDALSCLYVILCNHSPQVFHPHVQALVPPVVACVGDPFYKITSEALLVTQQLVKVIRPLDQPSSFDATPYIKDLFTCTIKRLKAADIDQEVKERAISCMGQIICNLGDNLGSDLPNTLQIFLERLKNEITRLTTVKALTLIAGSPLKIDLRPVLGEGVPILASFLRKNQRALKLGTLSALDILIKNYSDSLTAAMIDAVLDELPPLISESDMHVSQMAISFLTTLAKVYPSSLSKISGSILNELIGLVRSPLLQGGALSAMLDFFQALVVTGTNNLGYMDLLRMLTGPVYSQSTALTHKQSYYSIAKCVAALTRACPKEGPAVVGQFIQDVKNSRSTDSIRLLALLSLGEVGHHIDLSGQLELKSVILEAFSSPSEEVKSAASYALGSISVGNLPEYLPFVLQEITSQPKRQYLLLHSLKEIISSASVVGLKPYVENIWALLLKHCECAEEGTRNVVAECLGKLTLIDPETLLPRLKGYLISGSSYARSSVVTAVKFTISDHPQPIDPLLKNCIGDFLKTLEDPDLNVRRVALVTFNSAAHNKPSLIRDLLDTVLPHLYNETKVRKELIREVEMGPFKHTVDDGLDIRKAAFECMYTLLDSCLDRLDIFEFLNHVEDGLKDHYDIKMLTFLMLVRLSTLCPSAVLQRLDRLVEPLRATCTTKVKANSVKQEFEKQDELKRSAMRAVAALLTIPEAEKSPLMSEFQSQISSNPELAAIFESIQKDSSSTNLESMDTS
Nature of the assay: pull-down; reciprocal: MBP-CAND1 (0.6 nmol) immobilised on amylose resin, incubated with GST-Lnp or GST-Rtn3c (3 nmol) in buffer A with 1% Triton X-100, 4 °C 2 h; CBB staining; both purified.

Results are given in words; binding and its absence hold for the method and conditions named. For part of these data: In cells and extracts the contact can be indirect. Some binding calls cover weakened binding; strength is not graded here. For part of these data: Tags and fused reporters may be left off the sequences shown.

Turning to “MBP-fused CAND1 (from UniProt Q86VP6 1-1230)”, the binding entry with GST-Rtn3c (mouse) is “no binding (tested: MBP-CAND1 10 nmol on GST-Rtn3c 1 nmol)”; in assay [1], “no binding (tested: MBP-CAND1 6 nmol on GST-Lnp Ub 0.6 nmol)”.
For “C-terminal FLAG-tagged Lnp (from UniProt Q9C0E8 1-428)”, the binding entry in the assay with gp78-myc (human), with HA-tagged CAND1 (human) [2] and with HA-tagged CAND1 (human) [3] was “binds” in each case.
As for “endogenous Lnp of HeLa cells (from UniProt Q9C0E8 1-428)”, the binding result in assay [4] is on record as “binds”.
On to “HA-tagged CAND1 (from UniProt Q86VP6 1-1230)”, for which the binding result with gp78-myc (human) is “no binding”.
gp78-myc (from UniProt Q9UKV5 1-643): in the assay with HA-tagged CAND1 (human) [2], the binding result is listed as “no binding”.

B1: GST-Rtn3c (protein, UniProt Q9ES97-3 1-237)
chain: MAESSAATQSPSVSSSSSGAEPSALGGGGGSPGACPALGAKSCGSSCAVHDLIFWRDVKKTGFVFGTTLIMLLSLAAFSVISVVSYLILALLSVTISFRVYKSVIQAVQKSEEGHPFKAYLDVDITLSSEAFHNYMNAAMVHVNKALKLIIRLFLVEDLVDSLKLAVFMWLMTYVGAVFNGITLLILAELLVFSVPIVYEKYKTQIDHYVGIARDQTKSIVEKIQAKLPGIAKKKAE
As for B1, the binding entry in the assay with MBP-fused CAND1 is recorded as “no binding (tested: GST-Rtn3c 3 nmol on MBP-CAND1 0.6 nmol)”.

The values are drawn from PMC6739345, “CAND1 regulates lunapark for the proper tubular network of the endoplasmic reticulum” (Scientific Reports, 2019).
